Molecular target: T1, p/CIP (UniProt O09000 1-1398, limits assumed)
T1 construct: In vitro translated, 35S-labeled; expressed in cells in the reporter assay; also called p/CIP/ACTR/AIB1
Experiment: GST pull-down, in vitro translated 35S-labeled coactivator
Protocol: To further characterize the interaction of STAT6 and NCoA-1 and to determine the specificity, GST-pull-down experiments are performed. The three related members of the NCoA/SRC-1 family are tested for interaction with the STAT6 TAD. Therefore the transactivation domain of STAT6 is fused to GST and equal amounts of GST and GST-STAT6-TAD are incubated with in vitro synthesized, [³⁵S]-labeled coactivators. NCoA-1 strongly binds to GST-STAT6 TAD (FIG. 4, lane 7). In contrast, NCoA-2 and p/CIP fail to interact with STAT6 TAD (lane 8, 9). No binding is observed with GST alone (lane 4, 5, 6). These findings are consistent with the transient transfection experiments shown in FIG. 1, where NCoA-1, but not NCoA-2 and p/CIP enhances transactivation by STAT6. Taken together, NCoA-1 specifically interacts with STAT6 and serves as a coactivator for STAT6.

| Binder | binding result |
| --- | --- |
| GST-STAT6 […] (other, also called GST-STAT6 ([…]); GST-STAT6 TAD) [sequence of about 200 residues not given]SDLIEGRGIPEFDSSMSMQLGPDMVPQVYPPHSHSIPPYQGLSPEESVNVLSAFQEPHLQMPPSLGQMSLPFDQPHPQGLLPCQPQEHAVSSPDPLLCSDVTMVEDSCLSQPVTAFPQGTWIGEDIFPPLLPPTEQDLTKLLLEGQGESGGGSLGAQPLLQPSHYGQSGISMSHMDLRANPSW | no binding |
| GST (Glutathion S Transferase) alone (enzyme, Control protein of the pull-downs, purified from E. coli) not shown | no binding |

Source: patent publication US20030092619A1 (Boehringer Ingelheim, published 2003)
